Measured values published in PubChem BioAssay AID493208 (National Center for Advancing Translational Sciences (NCATS), 2011).
About 340 (0.77%) of roughly 44,000 compounds were called active. Roughly 5% stayed inconclusive and do not appear here. Calls follow the shape of the dose curve; as a rule, active = well fitted inhibition curve with a large enough effect; inconclusive = small, poorly fitted or top-dose-only effect; inactive = flat fitted curve, though single readings scatter. The list shows a part of the results.

Assay: Acumen qHTS Assay for Inhibitors of the mTORC1 Signaling Pathway in MEF (Tsc2-/-, p53-/-) Cells: Sytravon;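 also: plate controls were DMSO for no effect and rapamycin for full effect; nearly all actives have a fitted effect of over 50% in size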
Details: phospho-rpS6 immunofluorescence/PI, 24 h; series mostly up to 38.3 µM; activity change, negative = inhibition: at the top concentration
Procedure, shortened: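 Immunofluorescence of rpS6 phosphorylation in Tsc2-/-, p53-/- MEFs after 24 h compound exposure, normalized to propidium iodide signal. Activity is expressed as % positive cells, thresholded with 7.5 nM rapamycin.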

| Structure (SMILES) | activity change, negative = inhibition |
| --- | --- |
| Cc1cccc(C)c1NC(=O)Cn1cc(S(=O)(=O)Cc2ccc(F)cc2)c2ccccc21 | inactive: -2.57% |
| COc1ccc(C(=O)Nc2nnc(SCc3cc(=O)n4cc(Cl)ccc4n3)s2)cc1 | inactive: 13.7% |
| Cc1ccc(CNC(=O)CN2C(=O)COc3ccccc32)cc1 | inactive: 12.5% |
| Cc1ccc(C(=O)c2cn(Cc3c(F)cccc3Cl)c3nc(C)ccc3c2=O)cc1 | inactive: -15.3% |
| Cc1noc(-c2ccc(-c3noc(-c4ccccc4)n3)cc2)n1 | inactive: -0.455% |
| CCc1ccc(C2CC(=O)c3c([nH]c(C(=O)OCc4ccc(C)cc4)c3C)C2)cc1 (configuration not stated) | inactive: -16.6% |
| CCC(C(=O)NCc1ccc2c(c1)CCN2C(=O)c1ccc(F)cc1)c1ccccc1 (configuration not stated) | inactive: 0.548% |
| CCc1nc2ccc(C(=O)NCCc3ccc(OC)cc3OC)cc2nc1CC | inactive: 5.67% |
| O=C(NCCc1ccc(Cl)cc1)c1ccc(CS(=O)(=O)Cc2ccc(Cl)cc2)o1 | inactive: 1.2% |
| CCOC(=O)c1cc(-c2ccc(C)cc2)n(CCC(=O)Nc2cc(Cl)ccc2C)c1C | inactive: -3.73% |
| CCOc1ccc(CCNC(=O)c2cc(Nc3ccc(C)cc3C)nc3ccccc23)cc1OCC | inactive: 1.9% |
| CC(=O)c1cc(-c2ccccc2)n(CCC(=O)Nc2nc3c(C)cccc3s2)c1C | inactive: 0.57% |
| CC1CCN(S(=O)(=O)c2ccc3[nH]cc(C(=O)NCc4ccc(F)cc4)c(=O)c3c2)CC1 | inactive: -0.324% |
| O=C1Cc2cc(S(=O)(=O)N3CCCCC3)cc3c2N1CCC3 | inactive: -6.25% |
| Cc1ccc(N2CC(NC(=O)Cc3ccc(F)cc3)CC2=O)cc1 (configuration not stated) | inactive: -0.212% |
| Cc1ccc2c(c1)sc1nc(-c3cc4cc(Cl)ccc4oc3=O)cn12 | inactive: -4.83% |
| Cc1cccc(CSc2nc(=O)c3c(n2C)NC(=O)CC3c2cccc(O)c2)c1 (configuration not stated) | inactive: -6.82% |
| COc1cc2[nH]c(=O)n(Cc3ccc(C(=O)NCc4ccc(C)cc4)cc3)c(=O)c2cc1OC | inactive: 1.07% |
| COc1ccccc1NC(=O)Cn1c(=O)n(-c2cccc(Cl)c2)c(=O)c2sc3ccccc3c21 | inactive: 1.18% |
| O=C(Cn1c(=O)n(Cc2ccc(C(=O)NCc3ccc4c(c3)OCO4)cc2)c(=O)c2ccccc21)Nc1cccc(Cl)c1 | inactive: -0.0529% |
| CC1=C(C(=O)Nc2cccc(C(F)(F)F)c2)C2(CCCCCC2)OC1=O | inactive: -15.7% |
| CC(C)CCn1c(=O)c2sccc2n2c(CCCC(=O)Nc3ccc(C(C)C)cc3)nnc12 | inactive: 4.75% |
| CCOC(=O)CC(NS(=O)(=O)c1cc(-c2cc(C)no2)ccc1C)c1ccc(C)cc1 (configuration not stated) | inactive: -27.7% |
| COc1ccc(N2CCN(c3nc4ccccc4n4c(C)nnc34)CC2)cc1 | inactive: 2.45% |

| Structure (SMILES) | activity change, negative = inhibition |
| --- | --- |
| CCOc1ccc2nc(NC(=O)c3nc(SCc4ccc(C)cc4)ncc3Cl)sc2c1 | inactive: 4.46% |
| O=C(CC1N=C2c3ccccc3N=C(SCC(=O)Nc3ccccc3F)N2C1=O)NCc1ccc2c(c1)OCO2 (configuration not stated) | inactive: 4.06% |
| Cc1ccc2occ(CC(=O)Nc3c(C(=O)Nc4ccc(Cl)cc4)oc4ccccc34)c2c1 | inactive: -2.85% |
| CC(C)COc1ccc(C(=O)N2CCC(c3nc4ccccc4s3)CC2)cc1 | inactive: -22.6% |
| Cc1cccc(C)c1NC(=O)CN(C)S(=O)(=O)c1ccc2[nH]c3c(c2c1)CCCC3 | inactive: -1.03% |
| CN(C(=O)CSc1nc2ccccc2[nH]1)c1ccc(F)cc1 | inactive: -0.332% |
| Cc1ccc(CSc2nncn3c2cc2sccc23)cc1 | inactive: -2.59% |
| COc1ccc(OC)c(S(=O)(=O)NCc2ccc3c(c2)CCN3C(=O)c2cccc(C)c2)c1 | inactive: -15.5% |
| Cc1cccc(N2C(=O)N(Cc3ccc(C(C)(C)C)cc3)c3ccccc3S2(=O)=O)c1 | inactive: -2.53% |
| Cc1ccc(CSCCNC(=O)CN(c2cccc(C)c2C)S(=O)(=O)c2ccccc2)cc1 | inactive: -5.73% |
| O=C(NCc1ccc(Cl)cc1)c1cnc(N2CCOCC2)c2ccccc12 | inactive: -1.2% |
| COc1ccccc1NC(=O)C1=C(C)Nc2nc(SCC(=O)c3ccc(C)cc3)nn2C1c1ccc(F)cc1 (configuration not stated) | inactive: -1.21% |
| CCOC(=O)c1c(NC(=O)C(C)Sc2cn(CCNC(=O)c3ccc(OC)cc3)c3ccccc23)sc2c1CCC2 (configuration not stated) | inactive: -1.17% |
| COc1ccc(CNC(=O)c2ccc3c(c2)CCN3S(=O)(=O)c2ccccc2)cc1 | inactive: -7.43% |
| CC1CCCN(S(=O)(=O)c2cc(C(=O)NCCc3ccccc3)n(C)c2)C1 (configuration not stated) | inactive: -6.09% |
| Cc1ccccc1CNC(=O)c1ccc(Cn2c(SCc3ccccc3)nc3cccnc32)cc1 | inactive: -8.86% |
| Cc1ccc(-c2nc(CNC(=O)NC3CCCCC3)c(C)o2)cc1 | inactive: 0% |
| COc1ccc(CNc2nc(-c3ccco3)nn2C(=O)c2ccccc2C)cc1 | inactive: 1.37% |
| Cc1ccc(Cl)cc1NC(=O)c1ccc2nc(CCc3ccccc3)oc2c1 | inactive: -5.93% |
| CC(=O)c1cccc(NC(=O)Nc2cc3c(cc2N2CCCC2)n(C)c(=O)n3C)c1 | inactive: -0.644% |
| CCc1ccc(C(=O)Nc2cccc(-c3nc4cc(C(C)C)ccc4o3)c2)cc1 | inactive: -28.3% |
| CCn1cc(C(=O)NCc2ccccc2Cl)c(=O)c2cc(S(=O)(=O)N3CCCCCC3)ccc21 | inactive: -0.612% |
| CCN(C(=O)c1cc(S(=O)(=O)N2CCCC2)cn1C)c1ccc(OC)cc1 | inactive: 4.13% |
